# Test results published in PubChem BioAssay AID1347120 (National Center for Advancing Translational Sciences (NCATS), 2019).
# The whole screen tested about 390,000 compounds, of which about 930 (0.24%) were called active. The inconclusive results got no clear call from the source; some entries with a clear call stand among them for comparison. The call rests on the fitted dose curve; in most records, active means well fitted activation curve with a large enough effect; inconclusive means small, poorly fitted or top-dose-only effect; inactive means no such curve, though single readings can be large or run the other way. A potency beside an inconclusive call is a rough fit, not a confirmed value.
# Test: qHTS for Suppressors of FUS Proteinopathy: Primary screen using FUS-linked yeast assay; further: nearly all actives have a fitted effect of over 55% in size;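 on growth rescue (activation): plate controls were DMSO vehicle for no effect and reference control for full effect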
# Settings: S. cerevisiae FUS-expressing, OD600, 24 h; Potency: growth rescue; growth rescue (activation): at 76.6 µM (top of the series)
# Method in brief: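 Quantitative HTS measuring growth restoration of FUS-toxic yeast. Galactose-induced cells (OD 0.005) were exposed 24hr at 30C to compounds at several concentrations, then absorbance at 600 nm was recorded.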
# Potency means the concentration at half of the fitted maximal effect; tags describe the fitted curve by direction and shape.
Structure (SMILES),Potency,growth rescue (activation)
O=[N+]([O-])c1ccc(N2CCN(Cc3ccccc3)CC2)s1,inactive,
Cc1cccc(CSc2nc3ccncc3n2CC(=O)Nc2cc(C)cc(C)c2)c1,"inconclusive: 35.5 µM [activator, single point]",
CCC(Sc1nc2cc3c(cc2c(=O)n1Cc1ccco1)OCO3)C(=O)Nc1cccc(OC)c1 (stereo not drawn),"inconclusive: 31.6 µM [activator, single point]",
CNC(=O)c1ccccc1F,,inconclusive: 56.4% [activator]
O=C(NCc1ccc(F)cc1)C1CCN(S(=O)(=O)c2cccnc2)CC1,"inconclusive: 22.4 µM [activator, partial curve, poor fit]",
OC[C@@H]1CN(Cc2ccc(-c3ccccc3)cc2)C[C@H](n2cnc3c(NCc4ccco4)ncnc32)O1,"inconclusive: 31.6 µM [activator, single point]",
COc1cccc(NC(=O)CN(C)C(=O)/C=C/c2cn(Cc3ccccc3)nc2-c2cccnc2)c1,"inconclusive: 14.1 µM [activator, partial curve]",
CCCOc1ccc(NC(=O)CC2C(=O)N(c3ccccc3)C(=O)N2CCC(C)C)cc1 (stereo not drawn),"inconclusive: 35.5 µM [activator, single point]",
CCc1ccc2c(c1)[C@]1(C(=O)N2)[C@@H]2C(=O)N(Cc3ccccc3)C(=O)[C@@H]2[C@@H]2CCCN21,"inconclusive: 31.6 µM [activator, single point]",
Cc1cccc(-c2nnc3n2N=C(c2ccccc2Br)CS3)c1,inactive,
CC1Cc2nc(SCC(=O)N3CCN(c4ccccc4)CC3)n(CCc3ccccc3)c(=O)c2S1 (stereo not drawn),active: 14.1 µM,
C(=Cc1c[nH]c2ccccc12)c1ccc2ccccc2n1,"inconclusive: 50.1 µM [activator, single point]",
CCCc1nn2c(=O)c(C(c3cccc(Cl)c3)c3c(O)nc4sc(CCC)nn4c3=O)c(O)nc2s1,"inconclusive: 15.8 µM [activator, partial curve]",
COc1ccccc1-n1c(SCC(=O)O)nc2c(sc(=S)n2-c2ccc(Cl)c(C)c2)c1=O,"inconclusive: 35.5 µM [activator, single point]",
CCOc1ccccc1C1CC(c2ccccc2)Nc2nc(N)nn21 (stereo not drawn),"inconclusive: 25.1 µM [activator, partial curve, poor fit]",
Cc1c(-c2ccc(F)cc2)nc(N)c(C#N)c1-c1cccs1,inactive,
COc1cc(-c2cc(OC)c3c(C)oc(C)c3c(=O)c2)ccc1OC(=O)c1ccccc1C,"inconclusive: 25.1 µM [activator, single point]",
CCc1nn(CC(=O)NCCCOC)c(=O)c2cc3occc3n12,inactive,
O=C(Cc1ccc(F)cc1)Nc1nccs1,inactive,
CC(C)=CCC/C(C)=C/CNC(=O)C[C@H]1C[C@H](C(=O)N2CCCCC2)[C@@]2(C)c3[nH]c4cc(CCC(=O)N(C)C)ccc4c3CCN2C1=O,"inconclusive: 20 µM [activator, partial curve, poor fit]",
O=C(Cn1cnc2c(nc3n2CCCCC3)c1=O)Nc1ccc(F)cc1,inactive,

Structure (SMILES),Potency,growth rescue (activation)
COc1ccc(C2Nc3ccccc3C(=O)N2Cc2ccco2)cc1COc1c(C)cc(NC(C)=O)cc1C (stereo not drawn),active: 10 µM,
Cc1cccc(OCC(=O)NC(C)C(=O)N/N=C/c2c(OCc3ccccc3)ccc3ccccc23)c1 (stereo not drawn),"inconclusive: 5.62 µM [activator, full curve, poor fit]",
CCCCOCCCNC(=O)C[C@@H]1C(=O)N(CCc2ccc(Cl)cc2)C2=CCCC[C@]21C(=O)OCC,"inconclusive: 25.1 µM [activator, single point]",
CCOc1ccc(OCC)c(NC(=O)C2CCCN2S(=O)(=O)c2cccc3cccnc23)c1 (stereo not drawn),"inconclusive: 15.8 µM [activator, partial curve, poor fit]",
CSc1cccc(NC(=O)C2CCCN(S(=O)(=O)c3ccc4c(c3)CCCN4C(C)=O)C2)c1 (stereo not drawn),"inconclusive: 31.6 µM [activator, single point]",
Cc1nnc(SCc2cccc3ccccc23)s1,"inconclusive: 5.62 µM [activator, full curve]",
S=C(S)N1CCCC1,inactive,
Cc1cc(C=O)c(C)n1-c1ccc(N2CCCCC2)c([N+](=O)[O-])c1,inactive,
COc1ccccc1-c1sc2cc3c(cc2c1-c1ccc(OCCN2CCCCC2)cc1)OCO3,"inconclusive: 25.1 µM [activator, partial curve, poor fit]",
CCSc1nc(-c2cccnc2)ccc1C#N,"inconclusive: 7.94 µM [activator, partial curve]",
Cc1cc(=O)[nH]c(N=N/C(=N/Nc2ccccc2C)c2ccccc2)n1,,inconclusive: 58.6% [activator]
COc1ccc(-c2ccc(=O)n(CC(=O)Nc3ccccc3C(F)(F)F)n2)cc1,inactive,
O=C(Cn1ncc2c1-c1ccccc1OC2)Nc1ccc(S(=O)(=O)N2CCCCC2)cc1,"inconclusive: 11.2 µM [activator, partial curve]",
Cc1ccc(S(=O)(=O)Nc2ccc3c(c2)CCCN3C(=O)c2cccs2)cc1C,"inconclusive: 31.6 µM [activator, single point]",
CCc1nn(CC(=O)NCCN(CC(C)C)CC(C)C)c(=O)c2cc3sc(C)cc3n12,inactive,
COc1ccc(-c2nn(-c3ccccc3)cc2/C=C2/SC(=S)N(CCC(=O)O)C2=O)cc1,"inconclusive: 31.6 µM [activator, partial curve, poor fit]",
O=C(O)c1cc(Br)ccc1NS(=O)(=O)c1cccc2nsnc12,inactive,
c1ccc(-c2cc(-c3nnc4n3N=C(c3ccc5ccccc5c3)CS4)[nH]n2)cc1,"inconclusive: 25.1 µM [activator, partial curve, poor fit]",
COc1ccc(-c2cc(C(=O)Nc3ccc(C)c(N)c3)c3ccccc3n2)cc1,active: 14.1 µM,
COc1ccc2c(c1)N=C(c1[nH]c3ccccc3c1CCN1C(=O)c3ccccc3C1=O)[C@]2(O)CCN1C(=O)c2ccccc2C1=O,active: 17.8 µM,
Cc1noc(C)c1C(=O)N1CCC1(C)C(=O)NS(=O)(=O)c1ccccc1C(F)(F)F (stereo not drawn),inactive,

Structure (SMILES),Potency,growth rescue (activation)
CC(C)C[C@H]1CN([C@@H](CC(C)C)CN2CCCC2CN2C(=S)NC[C@@H]2Cc2ccccc2)C(=S)N1CC1CCCCC1 (stereo partly drawn),"inconclusive: 15.8 µM [activator, partial curve, poor fit]",
O=C(Nc1nccs1)c1ccc(COc2c(F)c(F)cc(F)c2F)o1,inactive,
O=C(Nc1ccc2c(c1)OCCO2)c1ccc(Cl)c(S(=O)(=O)N2CCCCC2)c1,"inconclusive: 50.1 µM [activator, partial curve, poor fit]",
CC(C)(C)NC(=O)NC(=O)CN1CCN(S(=O)(=O)c2ccc3c(c2)CCCC3)CC1,"inconclusive: 35.5 µM [activator, single point]",
COc1ccc(OC)c(NS(=O)(=O)c2ccc3c(c2)CCCN3C(=O)C2CCC2)c1,"inconclusive: 28.2 µM [activator, single point]",
COc1cc([C@H]2OC[C@H]3[C@@H]2CO[C@H]3c2ccc(O)c(OC)c2)ccc1O,inactive,
CNC(=O)c1ccc(-c2sc3nc(N4CCOCC4)c4c(c3c2N)CC(C)(C)OC4)o1,inactive,
Cc1cc(NC(=O)CSc2nnc(-c3ccoc3C)n2N)no1,,inconclusive: 59.6% [activator]
CCc1cc(C(c2ccccn2)N2CCN(C)CC2)c(NC(=O)c2ccccc2)s1 (stereo not drawn),"inconclusive: 7.94 µM [activator, partial curve, poor fit]",
COC(=O)c1sc(N2C(=O)C(=O)/C(=C(/O)c3ccc(C)cc3)C2c2ccco2)nc1C (stereo not drawn),"inconclusive: 44.7 µM [activator, single point]",
Cc1[nH]c2ccccc2c1C(=O)c1cc([C@H](NC(=O)OC(C)(C)C)C(C)C)sc1N,"inconclusive: 20 µM [activator, single point]",
O=C(CSc1nnc(COc2ccccc2)n1-c1ccccc1)c1cccs1,"inconclusive: 25.1 µM [activator, single point]",
O=C(c1ccc(Br)cc1)c1cc(-c2ccccn2)c(N2CCOCC2)s1,inactive,
CCc1nnc(NC(=O)COC(=O)CN2C(=O)c3ccccc3C2=O)s1,"inconclusive: 7.08 µM [activator, full curve]",
Cc1cc2c(cc(C(=O)OC(C(=O)NC3CCCCC3)C(C)C)n2C)o1 (stereo not drawn),"inconclusive: 3.55 µM [activator, full curve]",
CCOC(=O)c1cc(CC)sc1NC(=O)CN1CCN(C(=O)C2CCCO2)CC1 (stereo not drawn),"inconclusive: 50.1 µM [activator, single point]",
COc1ccc(S(=O)(=O)Cc2ccc(C(=O)N3CCN(c4cc(Cl)ccc4C)CC3)o2)cc1,"inconclusive: 28.2 µM [activator, single point]",
N=C1C(c2nc3ccccc3[nH]2)=C(O)CN1c1ccc(F)cc1,"inconclusive: 2.82 µM [activator, full curve]",
COc1ccc(NC(=O)C[C@H]2C(=O)N(Cc3ccccc3)C[C@@H]2Cc2ccccc2)cc1,"inconclusive: 14.1 µM [activator, partial curve]",
Cn1c(C(=O)N2CCCC(C(=O)N3CCN(c4ccccc4)CC3)C2)cc2sccc21 (stereo not drawn),"inconclusive: 35.5 µM [activator, single point]",
Cc1ccc(S(=O)(=O)N(C)C)cc1-n1c(SCC(=O)Nc2ccc(F)cc2Cl)nc2ccccc2c1=O,"inconclusive: 12.6 µM [activator, partial curve]",
